Among all 380,000 compounds or so, about 4,000 (1.1%) were called active. Inconclusive results, whose numbers are uncertain, are shown with a selection of clear calls. Calls come from the whole dose curve; as a rule, active = well fitted activation curve with a large enough effect; inconclusive = small, poorly fitted or top-dose-only effect; inactive = no such curve, though single readings can be large or run the other way. A potency beside an inconclusive call is a rough fit, not a confirmed value.
Test: qHTS Assay to Identify Small Molecule Activators of BRCA1 Expression; note: nearly all actives have a fitted effect of over 80% in size
Details: MCF7-BRCA1-FFLuc reporter, luminescence, 48 h; activation: at 46.1 µM (top of the series), scaled: vehicle 0%, 10 µM genistein 100% unless noted
Method in brief: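 Luminescence from a BRCA1-driven firefly luciferase in MCF7 cells was read after 48 h compound exposure at 37 C. Data normalized against DMSO and a 10microM genistein activation control, then curve-fitted across the titration.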
Potency is the fitted concentration of half-maximal effect; tags give direction and shape of the fitted curve.

With COCCn1c(C)cc(C(=O)COC(=O)c2ccc(Cl)c(S(N)(=O)=O)c2)c1C as the compound, how does the Potency read?
Its Potency is inconclusive: 1.58 µM [activator, partial curve, poor fit].

For CCCCC(=O)NNC(=S)NC(=O)c1ccc(C)cc1, which “activation” value is on record?
Its value is inactive: -17.7%.

Which Potency does the source give for CC1=CC(c2ccccc2)=Nc2ccc(C)cc2N1 here?
The Potency was active: 7.08 µM.

With Cc1cccc(COc2ccccc2C(=O)OCC(=O)N(C)c2c(N)n(Cc3ccccc3)c(=O)[nH]c2=O)c1 as the compound, how does the “activation” value read?
The value was inactive: -2.86%.

Which Potency does the source give for Clc1ccc(C=NN2CCCCCC2)cc1 here?
Its Potency is active: 10 µM.

For Cc1cc(C(=O)N/N=C/c2ccc[nH]2)n[nH]1, which “activation” value is on record?
Its value is inactive: -33.9%.

Which Potency does the source give for COc1cccc(C(=O)Nc2ccccc2)c1 here?
The Potency was inconclusive: 17.8 µM [activator, single point].

Which “activation” value does the source give for S=C1NCN(C2CCCCC2)CN1CCc1ccccc1 here?
Its value is inactive: -9.45%.

With COc1cc(C=NNC(=O)C(=O)Nc2cccc(Cl)c2)cc(OC)c1O as the compound, how does the “activation” value read?
Its value is inactive: 68.2%.

With Cc1ccc(-c2nnc(-c3ccccc3Br)o2)cc1 as the compound, how does the Potency read?
Its Potency is inconclusive: 2 µM [activator, partial curve, poor fit].

With Cn1c(SCc2c(F)cccc2Cl)nnc1-c1cccs1 as the compound, how does the Potency read?
The Potency was active: 3.98 µM.

For CCC(=O)Nc1cccc(-c2nc3cc(C)ccc3o2)c1, which Potency is on record?
The Potency was inconclusive: 2.82 µM [activator, partial curve, poor fit].

For CCOc1ccc2nc(NC(=O)Cn3[nH]c(=O)c4ccccc4c3=O)sc2c1, which Potency is on record?
The Potency was inconclusive: 8.91 µM [activator, partial curve, poor fit].

With O=C(NCC(=O)N(c1ccc(Cl)cc1)C(C(=O)NC1CCCC1)c1cccnc1)c1ccco1 (stereo unspecified) as the compound, how does the “activation” value read?
The value was inactive: -49.7%.

For CCc1nnc(NC(=O)c2sc3nc4c(cc3c2N)CCCCC4)s1, which Potency is on record?
The Potency was inconclusive: 1.26 µM [activator, full curve, poor fit].

With CCN(Cc1ccccc1)c1ccc(/C=N/N=C(N)N)cc1 as the compound, how does the “activation” value read?
Its value is inactive: -74.1%.

Which Potency does the source give for CC(C)(C)OC(=O)N1CCC(C(=O)Nc2ccc(C(=O)NCCc3ccccc3)cc2)CC1 here?
The Potency was inconclusive: 15.8 µM [activator, partial curve, poor fit].

Which Potency does the source give for Nc1c(-c2cccc(Cl)c2)cnc2c(-c3ccccc3)cnn12 here?
Its Potency is inconclusive: 2.51 µM [activator, full curve, poor fit].

For Cc1ccc2oc(-c3ccc(NC(=O)CCC(=O)O)cc3)nc2c1, which Potency is on record?
The Potency was inconclusive: 11.2 µM [activator, partial curve, poor fit].

For CCC(=O)Nc1ccc(NC(=O)c2ccco2)cc1, which Potency is on record?
Its Potency is active: 2.51 µM.

Which “activation” value does the source give for CCn1cc2nc(SCC(=O)Nc3cc(OC)cc(OC)c3)n(Cc3ccc(Cl)cc3)c(=O)c2n1 here?
The value was inactive: -34%.

For O=Cc1ccc2noc(-c3ccc(F)cc3)c2c1, which Potency is on record?
The Potency was inconclusive: 10 µM [activator, partial curve, poor fit].

Which Potency does the source give for Nc1nc2c(s1)CC(c1ccccc1)CC2 (stereo unspecified) here?
Its Potency is inconclusive: 17.8 µM [activator, partial curve, poor fit].

With CC(CSC(=O)c1ccccc1)C(=O)N1c2ccccc2CC1C(=O)O (stereo unspecified) as the compound, how does the “activation” value read?
The value was inactive: -18.4%.

Which Potency does the source give for COc1cccc(-c2cc(C(=O)N3C(C)CCCC3C)no2)c1 (stereo unspecified) here?
The Potency was inconclusive: 2.24 µM [activator, full curve, poor fit].

Which “activation” value does the source give for O=C(NC1CCCC1)C(c1ccccc1F)N(C(=O)Cc1cccs1)c1ccc2c(c1)OCCO2 (stereo unspecified) here?
The value was inactive: -26.9%.

With O=C(Nc1ccc(F)c(Cl)c1)c1ccc2c(c1)OCO2 as the compound, how does the Potency read?
The Potency was inconclusive: 1.78 µM [activator, full curve, poor fit].

For C=CCn1c(-c2csc(-c3ccccc3)n2)n[nH]c1=S, which “activation” value is on record?
Its value is inactive: 15.9%.

For CC(=O)c1cccc(NC(=S)NC(=O)c2cccc(Cl)c2)c1, which Potency is on record?
The Potency was inconclusive: 7.08 µM [activator, partial curve, poor fit].

Which Potency does the source give for Cc1cc(C(=O)CSc2nnnn2C)c(C)n1-c1cccc(F)c1 here?
The Potency was inconclusive: 1.41 µM [activator, full curve, poor fit].

Which “activation” value does the source give for COc1ccc(-c2cnc(C)o2)cc1S(=O)(=O)Nc1ccc(NC(C)=O)cc1 here?
The value was inactive: -0.567%.

For CC[C@H](C)[C@@H]1NC(=O)[C@H]([C@@H](C)CC)NC(=O)[C@@H](CC(C)C)NC(=O)[C@H](Cc2ccccc2)NC(=O)[C@H](Cc2ccccc2)NC(=O)[C@@H]2CCCN2C(=O)[C@@H]2CCCN2C(=O)[C@H](C(C)C)NC(=O)[C@H](CC(C)C)NC1=O, which “activation” value is on record?
The value was inactive: -57.9%.

Which Potency does the source give for COc1ccc(NC(=S)N/N=C/c2ccc(F)cc2)cc1OC here?
Its Potency is inconclusive: 6.31 µM [activator, partial curve, poor fit].

For COc1ccc(CN2C(=O)C(Cc3ccccc3)Nc3ncnc(N4CCCCC4)c32)cc1 (stereo unspecified), which “activation” value is on record?
The value was inactive: -22.4%.

With Cc1ccsc1CCNC(=O)C1CCC(=O)N(CCc2cccc(F)c2)C1 (stereo unspecified) as the compound, how does the Potency read?
The Potency was active: 7.94 µM.

Which Potency does the source give for Cc1cc(NC(=O)CSc2nc(C3CC3)nc3sc4c(c23)CCC(C)C4)no1 (stereo unspecified) here?
The Potency was inconclusive: 3.16 µM [activator, full curve, poor fit].

With CC(C)Oc1ccc(-c2nc(-c3cccnc3)no2)cc1 as the compound, how does the Potency read?
Its Potency is inconclusive: 0.501 µM [activator, full curve, poor fit].

Which Potency does the source give for CCc1ccc(CNc2ccc3c(c2)ncn3C(C)(C)C)cc1 here?
Its Potency is inconclusive: 2.82 µM [activator, full curve, poor fit].

With CCc1ccc(NC(=O)Nc2cnccn2)cc1 as the compound, how does the Potency read?
Its Potency is inconclusive: 2.51 µM [activator, full curve, poor fit].

For O=C1NC(=S)S/C1=C\c1ccc2ccccc2c1, which Potency is on record?
The Potency was inconclusive: 11.2 µM [activator, partial curve, poor fit].

For COc1ccc(-n2nc3cc(N)c(Br)cc3n2)cc1, which Potency is on record?
The Potency was inconclusive: 31.6 µM [activator, single point].

For O/N=C/c1ccc(OCc2ccccc2F)c(Cl)c1, which Potency is on record?
Its Potency is active: 2.82 µM.

Which Potency does the source give for Clc1cccc2sc(N3CCCCC3)nc12 here?
The Potency was inconclusive: 11.2 µM [activator, partial curve, poor fit].

With COc1ccc(-c2csc(NC(=O)C3=COCCO3)n2)c(OC)c1 as the compound, how does the Potency read?
The Potency was inconclusive: 8.91 µM [activator, partial curve, poor fit].

For CC(=O)Nc1cccc(OCc2cccc([N+](=O)[O-])c2)c1, which Potency is on record?
The Potency was inconclusive: 31.6 µM [activator, single point].

With O=C(NC(=S)NC(c1ccccc1)c1ccncc1)c1ccccc1 (stereo unspecified) as the compound, how does the “activation” value read?
Its value is inactive: -26%.

Which Potency does the source give for Cc1ccc(C(=O)CSc2nnc(C3CC3)n2C2CC2)s1 here?
The Potency was inconclusive: 14.1 µM [activator, partial curve, poor fit].

For CCCOCCc1nnc(N)s1, which “activation” value is on record?
Its value is inactive: 0%.

With O=C(CSc1nc2ccccc2n1S(=O)(=O)c1ccccc1)N1CCCCC1 as the compound, how does the Potency read?
Its Potency is active: 14.1 µM.

Which Potency does the source give for O=C(c1cc2ccccc2oc1=O)N1CCOCC1 here?
The Potency was inconclusive: 15.8 µM [activator, single point].

Which “activation” value does the source give for COc1ccccc1N1CCN(c2ccc3c(c2)S(=O)(=O)c2cccc(C(=O)NCC4CC4)c2C3=O)CC1 here?
The value was inactive: 0.624%.

With Cc1ccc(N=c2c([N+](=O)[O-])nn(-c3ccccc3)n2O)c(C)c1 as the compound, how does the “activation” value read?
Its value is inactive: -21.3%.

Which “activation” value does the source give for COc1ccc(N=C2C(=O)Nc3ccccc32)cc1 here?
Its value is inactive: 8.63%.

With Cc1cccc(NC(=O)c2cc(-c3cc(Cl)ccc3O)n[nH]2)c1 as the compound, how does the Potency read?
The Potency was inconclusive: 1.78 µM [activator, full curve, poor fit].

With C/C(=N/Oc1nc(C)cc(C)n1)c1ccccc1 as the compound, how does the Potency read?
Its Potency is inconclusive: 20 µM [activator, single point].

For Cc1cc(Cl)c2oc(C(=O)N3CCOCC3)c(C)c2c1, which Potency is on record?
Its Potency is inconclusive: 10 µM [activator, partial curve, poor fit].

For c1ccc(OCCN2C3=NCCN3c3ccccc32)cc1, which “activation” value is on record?
Its value is inactive: -8.99%.

For COc1cccc2cc(C(=O)Nc3cccc(C)n3)c(=O)oc12, which Potency is on record?
The Potency was inconclusive: 14.1 µM [activator, single point].

With COc1cccc(-c2nnc(SCc3cccnc3)o2)c1 as the compound, how does the Potency read?
Its Potency is inconclusive: 12.6 µM [activator, partial curve, poor fit].

With COC(=O)[C@@H](C)NC(=O)c1ccc2oc(CCc3ccccc3)nc2c1 as the compound, how does the Potency read?
The Potency was active: 11.2 µM.

Which Potency does the source give for COc1ccccc1/C=C/C(=O)NCCc1ccccn1 here?
Its Potency is active: 3.16 µM.

Which Potency does the source give for N#CCC(=O)N/N=C/c1ccc(OCc2ccccc2)cc1 here?
Its Potency is active: 7.94 µM.

Which Potency does the source give for CCOc1ccc2nc(NC(=O)Nc3ccccc3)sc2c1 here?
The Potency was inconclusive: 35.5 µM [activator, single point].

With Cc1cc(C(=O)N2CCC2(C)C(=O)NS(=O)(=O)c2ccccc2Cl)nn1C (stereo unspecified) as the compound, how does the “activation” value read?
The value was inactive: 41.2%.

With COc1ccc(-c2nnc(-c3ccc(N(C)C)cc3)o2)cc1 as the compound, how does the Potency read?
The Potency was inconclusive: 2.82 µM [activator, full curve, poor fit].

With COCc1cccc(C2=CC(=O)C[C@H](c3ccc(F)cc3)C2)c1 as the compound, how does the “activation” value read?
Its value is inactive: 18.4%.

With O=C(NC1CCCCCC1)C(=S)NC1CCCCC1 as the compound, how does the Potency read?
The Potency was inconclusive: 3.16 µM [activator, full curve, poor fit].

Which “activation” value does the source give for COc1ccc(/C=N/Nc2ncnc3c2[nH]c2ccc(C)cc23)c(OC)c1OC here?
The value was inactive: -36.5%.

Which Potency does the source give for CCSc1nnc(Nc2ccc(C)cc2)s1 here?
Its Potency is active: 10 µM.

For Nc1nnc(-c2cc3ccccc3oc2=O)s1, which Potency is on record?
The Potency was active: 7.94 µM.

With O=C1C=C(c2ccc3[nH]ccc3c2)CCC1 as the compound, how does the Potency read?
The Potency was inconclusive: 8.91 µM [activator, partial curve, poor fit].

With CC(C)(C)c1cc(NS(=O)(=O)c2cccs2)no1 as the compound, how does the “activation” value read?
The value was inactive: -2.33%.

Which “activation” value does the source give for COc1ccc([C@H]2CC(=O)C=C(c3ccc(C)c(F)c3)C2)cc1 here?
The value was inactive: 16.9%.

For Cc1nnc(SCC(=O)N2CC(=O)Nc3ccccc32)n1Cc1ccccc1, which “activation” value is on record?
The value was inactive: 0%.

With O=C(O)c1cc(N/N=C/C(Cl)=C/c2ccccc2)ccc1Cl as the compound, how does the activation read?
The activation was inconclusive: -47.4% [activator].

Which Potency does the source give for CCOc1ccc(OCCSc2nc(C)cc(=O)[nH]2)cc1 here?
The Potency was inconclusive: 15.8 µM [activator, single point].
